Test results reported in PubChem BioAssay AID1347073 (National Center for Advancing Translational Sciences (NCATS), 2019).
About 200 (0.44%) of roughly 45,000 compounds were called active. Another 7% or so got no clear call; they are omitted. The call rests on the fitted dose curve; in most records, active means well fitted activation curve with a large enough effect; inconclusive means small, poorly fitted or top-dose-only effect; inactive means no such curve, though single readings can be large or run the other way. The list shows a part of the results.

Experiment: qHTS of TDP-43 Inhibitors: NCGC Sytravon Library Screen; further: 0% is about no effect; nearly all actives have a fitted effect of over 55% in size
Conditions: yeast TDP-43 toxicity rescue, BacTiter-Glo growth, 24 h; series mostly up to 46.1 µM; growth rescue (activation): at the top concentration
Summary of the method: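 TDP-43-expressing yeast, pregrown in raffinose, seeded at OD600 0.02 in galactose medium with compound for 24 hr at 30 deg C. Growth read by BacTiter-Glo luminescence, so rescue of toxicity appears as activation.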
With `O=C(O)c1ccc(NS(=O)(=O)c2ccc(C(=O)Nc3ccccc3)cc2)cc1` the “growth rescue (activation)” value was inactive: -2.75%.
With `Cc1nc(N2CCN(C)CC2)c2c(C)c(C(=O)Nc3ccc(F)cc3)sc2n1` the “growth rescue (activation)” value was inactive: 5.52%.
In the case of `NS(=O)(=O)c1cccc(NC(=O)c2ccc(S(=O)(=O)N3CCCCCC3)cc2)c1`, the “growth rescue (activation)” value is reported as inactive: 32.2%.
With `CCOC(=O)CN1C(=O)S/C(=C/c2ccc(OC)c([N+](=O)[O-])c2)C1=O` the “growth rescue (activation)” value was inactive: -5.88%.
In the case of `CCCNC(=O)C1(C)CCN(C(=O)c2cc(F)ccc2C)C1` (configuration not stated), the “growth rescue (activation)” value is reported as inactive: 2.84%.
With `Cc1cc(C(F)(F)F)nc(-n2cc(-c3cccc(N)c3)nn2)n1` the “growth rescue (activation)” value was inactive: 10.3%.
For `CN(c1ccc(C(=O)Nc2ccccn2)cc1)S(=O)(=O)c1ccccc1`, the “growth rescue (activation)” value was inactive: 12.3%.
With `CCOC(=O)C1=C(O)C(=O)N(Cc2ccccc2)CC1` the “growth rescue (activation)” value was inactive: 10.1%.
In the case of `O=C(OCC(=O)N1CCc2ccccc21)c1ccccc1`, the “growth rescue (activation)” value is reported as inactive: 22.7%.
With `CC(C)CC1=NC(C(F)(F)F)(C(F)(F)F)c2c(n(CC(C)C)c(=O)[nH]c2=O)N1` the “growth rescue (activation)” value was inactive: 0.0292%.
With `C=CCNC(=O)N1CCCC(C(=O)c2cccc(Cl)c2)C1` (configuration not stated) the “growth rescue (activation)” value was inactive: 9.82%.
With `CCN(CC)Cc1c(O)c(Cl)cc2c(C)cc(=O)oc12` the “growth rescue (activation)” value was inactive: -0.132%.
With `CCn1c(C(=O)NCc2cc(Br)ccc2OC)cc2oc3ccccc3c21` the “growth rescue (activation)” value was inactive: 9.96%.
With `O=c1[nH]c(/C=C\c2ccc(O)c(O)c2)nc(O)c1[N+](=O)[O-]` the “growth rescue (activation)” value was inactive: -1.7%.
With `COc1ccc(-c2onc(C)c2-c2cnn(-c3ccccc3)c2)c(O)c1C` the “growth rescue (activation)” value was inactive: -1.63%.
In the case of `Cc1ccc(C)c(CN2CCC(CNC(=O)Nc3ccc(F)c(Cl)c3)CC2)c1`, the “growth rescue (activation)” value is reported as inactive: -16.1%.
For `O=C(c1cc[n+]([O-])cc1)N1CCCC(N2CCN(c3cccc(C(F)(F)F)c3)CC2)C1` (configuration not stated), the “growth rescue (activation)” value was inactive: -38.2%.
For `Cc1cc(NC(=O)CCC(=O)N(Cc2ccco2)C2(C(=O)NC3CCCCC3)CCCCC2)no1`, the “growth rescue (activation)” value was inactive: -4.97%.
With `COC(=O)c1ccc(NC(=S)Nc2cccc(C)n2)cc1` the “growth rescue (activation)” value was inactive: 22.3%.
For `COCCC(=O)Nc1ccc2c(c1)CN(C(=O)CCOC)CC2`, the “growth rescue (activation)” value was inactive: 6.78%.
With `COc1cc(/C=C/C2=CC(C)(C)NC(=S)N2)cc(OC)c1OC` the “growth rescue (activation)” value was inactive: 9.14%.
For `CC(=O)c1c(C)[nH]c(C(=O)Nc2ccc(Cl)cc2F)c1C`, the “growth rescue (activation)” value was inactive: 2.83%.
For `O=C(Cn1nc(-c2ccccc2)ccc1=O)Nc1ccc(-n2cnnn2)cc1`, the “growth rescue (activation)” value was inactive: 21.9%.
In the case of `CCNC(=O)C1(C)CCCN(C(=O)c2cc(C)n(C(C)(C)C)n2)C1` (configuration not stated), the “growth rescue (activation)” value is reported as inactive: -7.03%.
For `CC(C)CNC(=O)c1cccc2c(-c3ccc(F)c(F)c3)coc12`, the “growth rescue (activation)” value was inactive: 20.7%.
With `CS(=O)(=O)N(CC(=O)N1CCN(Cc2ccccc2)CC1)c1ccccc1F` the “growth rescue (activation)” value was inactive: -24.9%.
For `COCCn1c(=O)[nH]c2cc(C(=O)N3CCN(c4cccc(C(F)(F)F)c4)CC3)ccc2c1=O`, the “growth rescue (activation)” value was inactive: 13.7%.
For `Cc1ccc(C(=O)NCCCCNC(=O)c2ccc(C)o2)o1`, the “growth rescue (activation)” value was inactive: 16.8%.
With `CN(C)c1cccc(C(=O)Nc2nnc(Cc3ccccc3)s2)c1` the “growth rescue (activation)” value was inactive: 23.5%.
For `COc1ccc(-n2nc(C(=O)NCC(=O)N3CCOCC3)c3ccccc3c2=O)c(OC)c1`, the “growth rescue (activation)” value was inactive: 1.32%.
With `NC(=NCc1ccco1)NC(=O)c1ccc(Cl)cc1` the “growth rescue (activation)” value was inactive: 8.91%.
For `CCOC(=O)c1ccc2ncc(C(=O)OCC)c(NCc3ccco3)c2c1`, the “growth rescue (activation)” value was inactive: 28.8%.
With `O=C(/C=C/c1ccc([N+](=O)[O-])cc1)NCc1cccs1` the “growth rescue (activation)” value was inactive: -24.9%.
In the case of `CCC1=NC(c2ccc(Br)cc2)N(O)C1(C)C` (configuration not stated), the “growth rescue (activation)” value is reported as inactive: -4.35%.
For `O=C1CCC(C(=O)OCC(=O)N2N=C3/C(=C\c4ccccc4)CCCC3C2c2ccccc2)N1` (configuration not stated), the “growth rescue (activation)” value was inactive: 24.6%.
For `S=c1nc(-c2ccc(Cl)cc2)[nH][nH]1`, the “growth rescue (activation)” value was inactive: 8.14%.
In the case of `CCOC(=O)c1ccccc1NC(=O)COC(=O)CCNS(=O)(=O)c1cccs1`, the “growth rescue (activation)” value is reported as inactive: 8.74%.
For `Cc1ccc(C2=CC(c3cccs3)n3nnnc3N2)cc1` (configuration not stated), the “growth rescue (activation)” value was inactive: 13%.
With `CC(=O)N1CC(=O)N(CC(=O)Nc2ccc(Br)cc2)C1=S` the “growth rescue (activation)” value was inactive: -8.16%.
For `COc1ccccc1CNc1nc2ccc(Cl)cc2n2cnnc12`, the “growth rescue (activation)” value was inactive: 11.2%.
For `CCC(NC(=O)c1cc(COc2cncc(Cl)c2)on1)c1ccc(C)cc1` (configuration not stated), the “growth rescue (activation)” value was inactive: 37.8%.
With `COc1ccc(CCNS(=O)(=O)c2cccc([N+](=O)[O-])c2)cc1` the “growth rescue (activation)” value was inactive: 22.8%.
In the case of `O=C(CSc1nc(-c2ccccc2)cs1)Nc1cccc([N+](=O)[O-])c1`, the “growth rescue (activation)” value is reported as inactive: 2.34%.
For `O=C(NC(=S)Nc1ccccc1OC(F)F)c1ccc2c(c1)OCO2`, the “growth rescue (activation)” value was inactive: 24.2%.
For `CN=C1S/C(=C\c2c(OC)cc(OC)cc2OC)C(=O)N1C`, the “growth rescue (activation)” value was inactive: 11.5%.
For `Cc1onc(-c2c(Cl)cccc2Cl)c1C(=O)Nc1nccs1`, the “growth rescue (activation)” value was inactive: 13.4%.
With `CCN(CC)S(=O)(=O)c1ccc(N2CCCC2)c(NC(=O)c2ccc([N+](=O)[O-])o2)c1` the “growth rescue (activation)” value was inactive: 18%.
For `CCCOC(=O)c1ccc(S(N)(=O)=O)o1`, the “growth rescue (activation)” value was inactive: 3.92%.
In the case of `Cn1cc(CN2CCCC(C(=O)c3cccs3)C2)c(-c2cccc(Cl)c2)n1` (configuration not stated), the “growth rescue (activation)” value is reported as inactive: 5.06%.
In the case of `COC(=O)c1c(NC(=O)CN2C(=O)NC(CCc3ccccc3)C2=O)sc2c1CCCCC2` (configuration not stated), the “growth rescue (activation)” value is reported as inactive: -21.8%.
With `OCC1(Cc2ccccc2)CCCN(Cc2cnn(-c3ccccc3)c2)C1` (configuration not stated) the “growth rescue (activation)” value was inactive: -0.691%.
With `CC(NC(=O)CN(C)Cc1cccs1)c1ccccc1` (configuration not stated) the “growth rescue (activation)” value was inactive: -6.58%.
